Out of some 230,000 compounds screened, fewer than 10 were called active. The inconclusive results got no clear call from the source; some entries with a clear call stand among them for comparison. Calls come from the whole dose curve; as a rule, active = well fitted curve in the direction sought with a large enough effect; inconclusive = small, poorly fitted or top-dose-only effect, or effect the other way, or another doubt; inactive = no such curve, though single readings can be large or run the other way. Potencies of inconclusive entries are left out as doubtful fits.
These compounds were tested against Runt-related transcription factor 1 (Homo sapiens) + Core-binding factor subunit beta (Homo sapiens) (UniProt Q01196+Q13951) (assay: qHTS Assay for Compounds Blocking the Interaction Between CBF-beta and RUNX1 for the Treatment of Acute Myeloid Leukemia). Details: AlphaScreen CBFb-His/RUNX1-biotin binding, biochemical; series mostly up to 59.8 µM.
UniProt Q01196, sequence (Q01196 whole entry, looked up): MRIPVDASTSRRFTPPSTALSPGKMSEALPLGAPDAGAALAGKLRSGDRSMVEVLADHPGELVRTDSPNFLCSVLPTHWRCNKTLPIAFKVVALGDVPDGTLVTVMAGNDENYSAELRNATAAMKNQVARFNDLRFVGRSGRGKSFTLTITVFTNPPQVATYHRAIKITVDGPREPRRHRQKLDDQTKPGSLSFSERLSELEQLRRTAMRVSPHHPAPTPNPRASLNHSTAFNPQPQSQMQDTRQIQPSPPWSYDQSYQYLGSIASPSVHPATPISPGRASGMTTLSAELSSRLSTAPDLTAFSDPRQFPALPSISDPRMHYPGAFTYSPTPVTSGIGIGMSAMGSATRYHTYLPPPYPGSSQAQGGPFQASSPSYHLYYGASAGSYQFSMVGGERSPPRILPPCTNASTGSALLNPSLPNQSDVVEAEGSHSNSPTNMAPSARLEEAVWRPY
UniProt Q01196, sequence (Q13951 whole entry, looked up): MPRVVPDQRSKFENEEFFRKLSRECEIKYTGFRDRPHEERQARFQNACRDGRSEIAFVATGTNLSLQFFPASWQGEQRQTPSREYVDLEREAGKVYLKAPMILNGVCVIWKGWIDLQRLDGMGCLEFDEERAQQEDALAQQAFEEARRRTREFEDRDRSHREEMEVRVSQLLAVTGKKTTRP
Summary of the method: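 CBF-beta (His) and RUNX1 (biotin), 30 nM each; 20 min preassociation; + compound, 15 min; + beads 50 ng each (Ni, streptavidin), 90 min; RT; AlphaScreen read.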

Row | SMILES | Potency
1 | Cn1c(N)c(C(=O)CSc2nnnn2-c2ccccc2)c(=O)n(C)c1=O | inconclusive [inhibitor, single point]
2 | C[C@@H]1C(c2ccc(F)cc2)=NN(c2ccccc2)[C@H]1C(=O)N1CCOC1=O | inconclusive [activator, single point]
3 | CCC[C@@H]1C[C@@]1(CCC)C(NC(=O)c1ccc(-c2ccccc2)cc1)c1cccc(Cl)c1 (stereo partly drawn) | inconclusive [activator, partial curve]
4 | O=C(N=C1N=C2C=CC=CN2Cc2ccccc21)c1ccc(S(=O)(=O)N2CCCC2)cc1 | inconclusive [activator, single point]
5 | COc1cc(C(=O)ON=C2C=C(C)C(=O)C(C)=C2)cc(OC)c1OC | inactive
6 | ClC1=C(Cl)C(Cl)(Cl)C(Cl)=C1Cl | inactive
7 | COc1ccc2c3c([nH]c2c1)C(C)NCC3 (stereo not drawn) | inconclusive [inhibitor, single point]
8 | N#Cc1c(-c2ccco2)cc(-c2ccccn2)nc1N | inconclusive [inhibitor, partial curve]
9 | O=C(COc1ccc2ccccc2c1)Nc1ccc(Cc2ccncc2)cc1 | inconclusive [activator, single point]
10 | COc1cccc(NC(=O)Nc2nnc(N3C(C)CCCC3C)s2)c1 (stereo not drawn) | inactive
11 | CCCCCCCCS(=O)C1CCS(=O)(=O)C1 (stereo not drawn) | inactive
12 | Cc1ccc(Sc2ncccc2C(=O)O)cc1C | inconclusive [activator, single point]
13 | COc1ccc(/C=C2/C(=O)NC(=O)N(C3CCCCC3)C2=O)cc1CSc1ccccn1 | inactive
14 | Cc1cc2c(ncn2C)c(NS(=O)(=O)c2ccccc2Cl)c1C | inconclusive [activator, partial curve]
15 | CC(C)(CS)C(=O)N1CCC[C@H]1C(=O)O | inconclusive [activator, full curve, poor fit]
16 | O=C(O)c1cccc(N2C(=O)/C(=C/c3ccc([N+](=O)[O-])cc3)C=C2c2ccccc2)c1 | inactive
17 | COc1cccc(NC(=O)CN2CCN(S(=O)(=O)c3ccc(C(C)C)cc3)CC2)c1 | inactive
18 | COCc1cc(=O)[nH]c(-c2csc(C)n2)n1 | inactive
19 | O=C(COC(=O)c1cccc(S(=O)(=O)N2CCN(c3ccccc3)CC2)c1)NCc1ccco1 | inconclusive [inhibitor, single point]
20 | CCOC(=O)c1cnc(-n2nc(C)cc2C)nc1NC1CCCC1 | inconclusive [inhibitor, single point]
21 | CC(N)COC(=O)C(CCCCN)NC(=O)Cc1c(-c2ccc3ccccc3c2)[nH]c2c1ccc1ccccc12 (stereo not drawn) | inconclusive [inhibitor, partial curve]
22 | C=C1SC(Nc2c(C)cc(C)cc2C)=NC12CCCCC2 | inactive
23 | O=C(Cc1ccccc1)NC(c1ccco1)c1c(O)ccc2ccccc12 (stereo not drawn) | inconclusive [inhibitor, single point]
24 | O=C(c1ccc2c(=O)n(C3CCCC3)c(=S)[nH]c2c1)N1CCCCCC1 | inactive

Row | SMILES | Potency
25 | O=C(N/N=C(\c1ccccc1)c1ccccn1)c1cccc([N+](=O)[O-])c1 | inconclusive [inhibitor, partial curve]
26 | O=C(Nc1ccncc1)c1cc(-c2ccccn2)nc2ccccc12 | inconclusive [activator, single point]
27 | O=C(NC1CCCCC1)C(c1ccc2ncccc2c1)N(Cc1ccc2c(c1)OCO2)C(=O)c1ccc2c(c1)OCCO2 (stereo not drawn) | inactive
28 | O=C(CN(c1ccccc1)S(=O)(=O)c1ccccc1)NCCSCc1ccco1 | inconclusive [inhibitor, partial curve]
29 | Cc1ccccc1/C=N/Nc1nc2ccccc2[nH]1 | inactive
30 | COc1ccccc1-n1c(SCC(=O)NCc2ccc3c(c2)OCO3)nc2cc([N+](=O)[O-])ccc21 | inconclusive [inhibitor, single point]
31 | CCCCC(=O)NC(c1ccccc1OC)c1ccc2cccnc2c1O (stereo not drawn) | inactive
32 | Nc1ccc(N2CCCCCC2)cc1 | inconclusive [inhibitor, partial curve]
33 | O=C1C2C3C=CC(C3)C2C(=O)N1CCCCCCN1C(=O)C2C3C=CC(C3)C2C1=O (stereo not drawn) | inactive
34 | Cn1cc(C(=O)N/N=C/c2cccs2)c2ccccc21 | inactive
35 | Cc1ccc2[nH]c(O)c(N=NC(N)=S)c2c1 | inactive
36 | Cc1c(O)c(=O)ccn1C | inconclusive [inhibitor, single point]
37 | Cc1cccc(N(CC(=O)NC(C)(C)C)C(=O)CNC(=O)c2cccs2)c1C | inactive
38 | CC(=O)OCOC(=O)CNc1ccccc1OCCOc1ccccc1NCC(=O)OCOC(C)=O | inconclusive [activator, single point]
39 | CCC(C)Sc1nc2c(c(=O)[nH]c(=O)n2C)n1Cc1ccccc1Cl (stereo not drawn) | inactive
40 | O=C(CNCCC1=CCCCC1)Nc1ccc(N2CCCCCC2)cc1 | inconclusive [inhibitor, single point]
41 | COC(=O)c1cccc(-c2ccc(C(c3c(C)[nH][nH]c3=O)c3c(C)[nH][nH]c3=O)o2)c1 | inactive
42 | O=C(Nc1ccc(NC(=O)c2cccs2)cn1)c1ccccc1 | inconclusive [activator, single point]
43 | CC(=O)Nc1ccc(C(=O)NCCCOC(C)C)cc1 | inactive
44 | Cc1ccc(OCCn2c(=O)sc3ccccc32)cc1 | inconclusive [activator, single point]
45 | O=C1CCCC2=C1C(c1ccccc1)CC(=O)N2c1ccc(F)cc1F (stereo not drawn) | inconclusive [activator, single point]
46 | O=S(=O)(Nc1cc(O)cc2cccnc12)c1ccc(Cl)s1 | inconclusive [inhibitor, partial curve]
47 | CC1(C)CC(=O)c2cnc(NC(=O)CCc3ccccc3)nc2C1 | inactive
48 | COCCN(CCOC)c1nc(C)nc2c1nc(-c1ccccc1)n2CC1CCN(C)CC1 | inactive

Source: PubChem BioAssay AID1477 (National Center for Advancing Translational Sciences (NCATS), 2009)
